# From PMC4336329 (PLoS ONE, 2015)
# The campaign covered roughly 310,000 compounds. About 14,000 (4.5%) showed an effect of 50% or more. Effects have a minus sign here. The list shows a part of the results.
# Molecular target: human ether-à-go-go-related gene (hERG) potassium channel (human, UniProt Q12809)
# Assay: primary screen, population patch clamp on CHO cells stably expressing hERG
# 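Also: peak tail current of the secondary pulse compared with the same well before compound.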
# Chain of human ether-à-go-go-related gene (hERG) potassium channel (Q12809 whole entry, looked up): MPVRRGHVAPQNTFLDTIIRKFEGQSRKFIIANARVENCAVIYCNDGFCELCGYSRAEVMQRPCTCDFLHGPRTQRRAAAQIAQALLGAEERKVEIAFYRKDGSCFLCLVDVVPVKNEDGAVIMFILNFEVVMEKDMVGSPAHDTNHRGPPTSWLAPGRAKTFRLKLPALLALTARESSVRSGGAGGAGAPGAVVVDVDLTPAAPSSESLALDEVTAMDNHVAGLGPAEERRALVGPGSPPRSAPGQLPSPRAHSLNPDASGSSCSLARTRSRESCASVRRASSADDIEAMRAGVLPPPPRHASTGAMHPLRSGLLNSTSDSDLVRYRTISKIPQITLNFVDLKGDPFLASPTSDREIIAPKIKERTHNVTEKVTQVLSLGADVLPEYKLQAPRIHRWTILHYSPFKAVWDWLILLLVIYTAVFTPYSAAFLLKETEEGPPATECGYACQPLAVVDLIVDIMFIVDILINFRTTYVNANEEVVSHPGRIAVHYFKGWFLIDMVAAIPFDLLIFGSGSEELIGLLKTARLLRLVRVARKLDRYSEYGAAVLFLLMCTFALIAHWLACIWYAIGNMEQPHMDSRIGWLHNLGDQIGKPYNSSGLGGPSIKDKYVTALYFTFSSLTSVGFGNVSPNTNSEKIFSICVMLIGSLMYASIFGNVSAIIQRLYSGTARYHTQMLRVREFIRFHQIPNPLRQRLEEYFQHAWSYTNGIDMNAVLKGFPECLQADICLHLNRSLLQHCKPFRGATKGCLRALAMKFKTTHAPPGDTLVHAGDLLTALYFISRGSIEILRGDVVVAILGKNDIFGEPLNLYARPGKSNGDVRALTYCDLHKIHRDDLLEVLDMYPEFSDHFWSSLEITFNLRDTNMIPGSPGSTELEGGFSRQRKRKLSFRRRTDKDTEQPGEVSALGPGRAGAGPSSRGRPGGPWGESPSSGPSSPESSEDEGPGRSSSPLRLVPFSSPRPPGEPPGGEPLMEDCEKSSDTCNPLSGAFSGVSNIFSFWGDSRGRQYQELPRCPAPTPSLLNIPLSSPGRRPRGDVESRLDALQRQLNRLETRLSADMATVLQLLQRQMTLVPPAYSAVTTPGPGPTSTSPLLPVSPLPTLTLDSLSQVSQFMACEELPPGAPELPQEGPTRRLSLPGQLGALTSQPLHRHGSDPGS
row,SMILES,"hERG current change (%, negative = inhibition) at 10uM [%]"
1,Cc1cccc(C)c1NC(=O)C1=C(O)c2ccccc2N(C)S1(=O)=O,19.2
2,O=C(NC(=S)NC1CCSC1=O)c1ccccc1 (stereo not drawn),9.63
3,CCN(CC)C(=O)Cn1c(=O)n(-c2ccccc2)c(=O)c2c3c(sc21)CCC3,13.7
4,Cc1noc(NC(=O)c2ccccc2Cl)c1C#N,2.2
5,Cc1cc(C)nc(N/N=C/c2ccccc2)n1,2.03
6,CC(C)(C)NC(=O)NC(=O)CN1CCc2ccccc21,-2.41
7,OC(CNC1Cc2ccccc2C1)c1ccccc1 (stereo not drawn),-6.88
8,Cc1ccc(C(=O)Nc2ccccc2C(=O)NC(CC(=O)O)C(=O)O)cc1 (stereo not drawn),-4.79
9,Cc1ccc(-c2ccc([C@H]3[C@@H]4C=CCC[C@@]4(C)C(=O)N3Cc3ccccc3)c(F)c2)cc1,15.1
10,COc1cc(C(=O)N2CCCN(c3nc4cc(C)ccc4cc3C#N)CC2)cc(OC)c1OC,-53.5
11,CN(CC(=O)Nc1cccc(S(=O)(=O)NC2=NCCC2)c1)Cc1cccc(F)c1,-4.31
12,CCOC(=O)N1CCN(c2ccccc2O)CC1,-1.09
13,O=C(COC(=O)c1ccc([N+](=O)[O-])o1)Nc1cccc2ccccc12,23.8
14,COc1ccc(NC(=O)COC(=O)COc2cccc(Br)c2)cc1OC,12.1
15,CCCCN(CCCC)c1nc2ccccc2nc1C(C#N)C(=O)NCCCOC (stereo not drawn),4.47
16,CCCN(CC(=O)Nc1ccccc1OC)C(=O)CSC(=S)N1CCCC1,-24
17,O=C(CCC(=O)N(CC(=O)NC1CCCCC1)Cc1ccccc1)Nc1nccs1,9.38
18,Cc1cc(NC(=O)c2cc3ccccc3o2)cc(C)c1OCC(=O)N1CCOCC1,-46.1
19,NS(=O)(=O)c1cc(C(=O)NCCOc2ccccc2)c(Cl)cc1Cl,11.8
20,Cc1cc(C)c(NC(=O)Cn2nnc(C(=O)NCCc3ccccc3)c2N)c(C)c1,30.6
21,CCN(CC)c1ccc(CNc2ccc3c(c2)ncn3C(C)(C)C)cc1,1.91
22,O=C(N=Nc1c(O)[nH]c2ccccc12)c1ccccc1NS(=O)(=O)c1cccs1,5.86
23,CCOC(=O)COc1ccc(S(=O)(=O)NC2CC2)cc1,14.2

row,SMILES,"hERG current change (%, negative = inhibition) at 10uM [%]"
1,O=C(COc1ccc(Cl)cc1)N1CCN(C(=O)c2cccs2)CC1,-74.5
2,O=C(/C=C/c1ccccc1)C1=C(O)C(=O)N(CCO)C1c1ccccc1[N+](=O)[O-] (stereo not drawn),9.59
3,O=C(Cn1ncc2c(=O)oc3ccccc3c21)NCCc1ccsc1,-54.2
4,Cc1ccccc1C(OCCN(C(C)C)C(C)C)c1ccccc1.O=C(O)/C=C\C(=O)O (stereo not drawn),-68.3
5,CCc1ccc(NC(=O)CC2C(=O)N(c3ccc(OC)cc3)C(=O)N2CCOC)cc1 (stereo not drawn),-5.67
6,Cc1c(C)c2ccc(OCC(=O)NCCN3CCOCC3)c(C)c2oc1=O,1.61
7,CCCn1c(=O)c2ccccc2n2c(SCC(=O)c3ccccc3)nnc12,-9.27
8,O=C1OC(Nc2ccccn2)c2ccccc21 (stereo not drawn),-5.61
9,COc1cccc(C(=O)/C(C#N)=N/Nc2cccc(-c3ccnc(C)n3)c2)c1,-29.9
10,Cc1c(NC(=O)C(C)OC(=O)CCOc2ccccc2)c(=O)n(-c2ccccc2)n1C (stereo not drawn),9.35
11,Cc1ccc(/C=C/C(=O)c2nc3ccccc3[nH]2)cc1,-3.88
12,CC1(C)CC(=O)C(c2c[nH]c3ccccc23)C(=O)C1,20.3
13,O=C(/C=N\O)NCCCNCc1ccccc1,-12.7
14,O=C(Cn1ccc(NC(=O)OCc2ccccc2)nc1=O)NCc1ccccn1,7.53
15,CC(C)CCSc1nc(N2CCOCC2)c2c(c1C#N)CC(C)(C)OC2,7.88
16,CCOC(=O)CNC(=S)N(Cc1cccs1)C1CCCC1,-5.82
17,O=C(SCC(O)C(O)CS)c1cccs1 (stereo not drawn),2.18
18,NC(=O)c1ccc(-n2nnnc2Oc2ccc(Br)cc2)cc1,-3.65
19,CCN(C(=O)Cc1nc(N)n[nH]1)C1(C(=O)Nc2ccccc2)CCCCC1,17.7
20,CCc1nc(N2CCN(S(C)(=O)=O)CC2)c2c3c(sc2n1)CCCC3,-5.91
21,COc1cccc(N(C(=O)c2cnccn2)C(C(=O)NC2CCCCC2)c2ccc(Cl)cc2)c1 (stereo not drawn),-0.326
22,CNc1oc(C)nc1S(=O)(=O)c1ccccc1,3.81
